Data as given in PubChem BioAssay AID1347165 (National Center for Advancing Translational Sciences (NCATS), 2019).
Several values for one entry are separate records, joined by “and”; a condition that tells them apart may be missing. Equal values may be shown once. In all, about 220,000 compounds went through this assay and about 5,700 (2.6%) were called active. Inconclusive results, whose numbers are uncertain, are shown with a selection of clear calls. Calls follow the shape of the dose curve; as a rule, active = well fitted inhibition curve with a large enough effect; inconclusive = small, poorly fitted or top-dose-only effect; inactive = no such curve, though single readings can be large or run the other way. Potencies of inconclusive entries are doubtful fits and often do not repeat.

Target: Lysine-specific demethylase 5B (Homo sapiens) (UniProt Q9UGL1)
Chain of UniProt Q9UGL1 (Q9UGL1 whole entry, looked up): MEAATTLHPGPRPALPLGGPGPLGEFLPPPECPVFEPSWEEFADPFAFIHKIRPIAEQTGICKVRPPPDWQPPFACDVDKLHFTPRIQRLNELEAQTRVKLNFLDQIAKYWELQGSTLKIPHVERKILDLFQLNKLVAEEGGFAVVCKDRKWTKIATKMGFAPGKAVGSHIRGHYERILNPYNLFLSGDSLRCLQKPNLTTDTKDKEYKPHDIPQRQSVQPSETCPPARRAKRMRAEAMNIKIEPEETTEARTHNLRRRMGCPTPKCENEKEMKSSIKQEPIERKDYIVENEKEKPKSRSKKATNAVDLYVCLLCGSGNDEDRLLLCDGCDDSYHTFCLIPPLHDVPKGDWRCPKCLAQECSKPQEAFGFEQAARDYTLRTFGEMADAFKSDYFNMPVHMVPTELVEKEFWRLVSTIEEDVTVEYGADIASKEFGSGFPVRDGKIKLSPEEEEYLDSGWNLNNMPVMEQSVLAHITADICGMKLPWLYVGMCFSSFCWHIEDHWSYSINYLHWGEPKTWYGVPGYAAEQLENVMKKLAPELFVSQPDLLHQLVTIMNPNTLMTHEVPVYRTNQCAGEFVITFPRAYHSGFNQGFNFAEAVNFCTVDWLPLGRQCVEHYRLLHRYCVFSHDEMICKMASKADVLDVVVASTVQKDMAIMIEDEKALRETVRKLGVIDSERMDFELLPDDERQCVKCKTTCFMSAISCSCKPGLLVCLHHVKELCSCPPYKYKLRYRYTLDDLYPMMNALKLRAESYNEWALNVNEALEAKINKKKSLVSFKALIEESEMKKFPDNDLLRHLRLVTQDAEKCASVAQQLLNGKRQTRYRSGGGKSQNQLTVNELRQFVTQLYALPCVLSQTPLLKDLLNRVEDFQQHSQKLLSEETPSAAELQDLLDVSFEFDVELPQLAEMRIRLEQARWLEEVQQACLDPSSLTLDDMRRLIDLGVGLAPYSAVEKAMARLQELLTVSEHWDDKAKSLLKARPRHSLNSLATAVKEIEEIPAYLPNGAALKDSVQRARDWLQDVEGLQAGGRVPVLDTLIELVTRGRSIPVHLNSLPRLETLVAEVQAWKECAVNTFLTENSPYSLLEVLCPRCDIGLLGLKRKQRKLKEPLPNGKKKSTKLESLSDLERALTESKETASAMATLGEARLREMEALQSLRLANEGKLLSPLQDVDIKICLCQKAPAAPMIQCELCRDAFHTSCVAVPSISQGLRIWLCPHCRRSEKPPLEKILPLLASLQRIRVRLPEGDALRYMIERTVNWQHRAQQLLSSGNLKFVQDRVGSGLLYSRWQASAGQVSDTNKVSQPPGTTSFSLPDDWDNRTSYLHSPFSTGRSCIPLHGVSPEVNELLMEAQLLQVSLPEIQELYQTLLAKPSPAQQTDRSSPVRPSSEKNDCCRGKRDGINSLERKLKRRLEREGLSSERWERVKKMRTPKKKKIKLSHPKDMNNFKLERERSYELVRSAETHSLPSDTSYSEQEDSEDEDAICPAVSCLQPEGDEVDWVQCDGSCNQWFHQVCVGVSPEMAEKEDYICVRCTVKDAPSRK
Assay: Primary screen for KDM5B Histone Demethylases FDH-coupled qHTS; also: nearly all actives have a fitted effect of over 70% in size
Conditions: FDH-coupled NADH fluorescence (FDH is formaldehyde dehydrogenase); series mostly up to 57.7 µM
How it was run: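 KDM5BΔAP (200 nM final) in 50 mM HEPES pH 7.5, 0.01% Tween-20 was preincubated 10 min at RT with compound over a concentration range. Substrate mix (H3K4me3 12.5 µM, α-KG 25 µM, Fe²⁺, ascorbate, NAD⁺, FDH) was added, and NADH fluorescence change over 30 min gave dose-response curves.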
Potency is read from the fitted curve at half-maximal effect; tags tell the direction and shape of the fitted curve.

Compound	Potency
COc1cc(/C=C/C(=O)c2c(O)c3ccccc3oc2=O)cc(OC)c1OC	inactive
COc1ccc(NC(=O)Cn2ccn3nc4c(c3c2=O)CCCCC4)cc1OC	inconclusive: 39.8 µM [inhibitor, partial curve, poor fit]
Cc1nc2scc(CC(=O)N3CCCC3)n2c(=O)c1-c1cc(C)n(-c2ccccc2F)n1	inconclusive: 28.2 µM [inhibitor, partial curve, poor fit]
Cc1nc(C)c(-c2csc(Nc3ccc(F)cc3)n2)s1	inconclusive: 39.8 µM [inhibitor, single point]
O=C1CC(c2ccccc2)N(Cc2ccncc2)CCCN(C(=O)c2ccco2)CCN1 (stereo not given)	inconclusive: 25.1 µM [inhibitor, single point]
Cc1cc(C(=O)Nc2ccc(C)c(I)c2)c(C)o1	inconclusive: 35.5 µM [inhibitor, single point]
O=C(CN1CCN(c2ccccc2O)CC1)N1N=C(c2cc3ccccc3o2)CC1c1ccco1 (stereo not given)	inactive
Cc1nc(CSc2nccc(C(F)(F)F)n2)cs1	inactive
Clc1ccccc1C1(c2ccnc(NCCc3ccncc3)n2)CCNCC1	inconclusive: 28.2 µM [inhibitor, partial curve, poor fit]
CNCCCCOc1ccc(Cc2ccccc2)cc1	inconclusive: 25.1 µM [inhibitor, partial curve, poor fit]
CC(=O)c1ccc(-c2ccc(C3CC(=O)Nc4c3c(C)nn4-c3ccc(=O)[nH]n3)o2)cc1 (stereo not given)	inconclusive: 20 µM [inhibitor, partial curve, poor fit]
CCOc1ccc(-c2nc(CSCC(=O)N3CCN(c4cccc(C(F)(F)F)c4)CC3)c(C)o2)cc1	inconclusive: 31.6 µM [inhibitor, partial curve, poor fit]
Cc1ccc(-c2cc3c(=O)n(CCNC(=O)Cc4ccsc4)ccn3n2)c(C)c1	inactive
Cc1cccc(OCC(=O)Nc2c(C)ccc3nsnc23)c1C	inconclusive: 17.8 µM [inhibitor, partial curve, poor fit]
CCn1nccc1C(=O)NCC1Cn2cccc2C(=O)N1C (stereo not given)	inactive
O=C(Nc1ccc(Oc2ccccc2)cc1)O[C@@H]1CO[C@H]2[C@@H]1OC[C@@H]2NS(=O)(=O)c1ccc2ccccc2c1	active: 22.4 µM
O=c1[nH]c2ccc(Cl)cc2c(-c2ccccc2)c1CN1CCCCC1	inconclusive: 28.2 µM [inhibitor, partial curve, poor fit]
Cc1[nH]n(-c2ccccc2)c(=O)c1C(=O)c1ccc(Cl)cc1	inconclusive: 22.4 µM [inhibitor, single point]
Cc1ccc(Cl)cc1-n1nc(-c2c(C)nc3scc(CC(=O)N4CCOCC4)n3c2=O)cc1C	active: 28.2 µM
CCN(CC)CCN1C(=O)/C(=C\c2ccc(Cl)c([N+](=O)[O-])c2)SC1=Nc1ccc(OC)cc1	inconclusive: 10 µM [inhibitor, partial curve, poor fit]

Compound	Potency
CC1(C)C2CCC1(C)C(Nc1ccccc1)C2 (stereo not given)	inconclusive: 39.8 µM [inhibitor, partial curve, poor fit]
O=C1C(Nc2ccccc2)=CC(c2ccc3c(c2)OCO3)N1c1ccccc1 (stereo not given)	inconclusive: 39.8 µM [inhibitor, partial curve, poor fit]
C(=N\N=C1c2ccccc2-c2ccccc21)/c1c2ccccc2cc2ccccc12	inactive
CCN(C(=O)CCC(=O)N1CCc2nc3cc(-c4ccc(OC)cc4)[nH]n3c(=O)c2C1)c1ccccc1	active: 7.08 µM
O=c1[nH]c(C2CCCN(Cc3cccc(-c4ccc(F)cc4F)c3)C2)nc2ccc(F)cc12 (stereo not given)	inconclusive: 56.2 µM [inhibitor, partial curve, poor fit] and inconclusive: 31.6 µM [inhibitor, single point]
CC(C)Cc1nc(N2CCN(C(=O)C(=O)NCCCO)CC2)c(C#N)c2c1CCCC2	inconclusive: 28.2 µM [inhibitor, partial curve, poor fit]
CCCCCN(CCC(=O)NCc1ccc2c(c1)OCO2)C(=O)c1cc(C)oc1C	inconclusive: 35.5 µM [inhibitor, partial curve, poor fit]
Cc1ccc(Cl)cc1N1CCN(S(=O)(=O)c2ccc3[nH]c4c(c3c2)CCCCC4)CC1	inconclusive: 2.82 µM [inhibitor, partial curve, poor fit]
CC(=O)Nc1cccc(-c2nccc3c(=O)cc(-c4ccncc4)oc23)c1	inconclusive: 35.5 µM [inhibitor, single point]
Cc1ccc2c(c1)N(CCC(=O)NCc1ccc(F)cc1)C(=O)CO2	inconclusive: 25.1 µM [inhibitor, single point]
COc1cccc(CNC(=O)c2ccc(CSc3nc4ccncc4n3Cc3cccc(C)c3)cc2)c1	inconclusive: 25.1 µM [inhibitor, single point]
CCC1CCCCN1CCNC(=O)c1cc2c(s1)CN(C1CCCC1)C2 (stereo not given)	active: 14.1 µM
c1ccc(-c2cc3c(Oc4cccc5ccccc45)ncnc3s2)cc1	inactive
CCN(CC)S(=O)(=O)c1cc(NC(=O)CN2c3cccc4cccc(c34)S2(=O)=O)ccc1C	inconclusive: 22.4 µM [inhibitor, partial curve, poor fit]
CN1CCN(c2nccc3c(=O)cc(N(C)C4CCOCC4)oc23)CC1	active: 39.8 µM
O=S(=O)(c1cccnc1)N1CCc2onc(-c3cccc4ccccc34)c2C1	active: 31.6 µM
O=C(c1ccc(Cl)cc1)N1CC2(CCN(C3CCCCC3)CC2)Cc2ccccc21	inactive
COc1ccc(S(=O)(=O)NCC2CCC(C(=O)NCC(=O)N3CCc4ccccc4C3)CC2)cc1 (stereo not given)	inactive
CCOC(=O)c1c(NC(=O)CSc2cn(CCNC(=O)c3ccccc3F)c3ccccc23)sc2c1CCC2	inactive
COc1ccc2c(c1)c(C(C(=O)O)N1CCN(CCC#N)CC1)cn2CC(=O)O (stereo not given)	inconclusive: 35.5 µM [inhibitor, single point]
